PubChem BioAssay AID1508624 (National Center for Advancing Translational Sciences (NCATS), 2021)
About 120 (0.25%) of roughly 48,000 compounds were called active. About 4% were inconclusive and are not listed. Calls follow the shape of the dose curve; as a rule, active = well fitted activation curve with a large enough effect; inconclusive = small, poorly fitted or top-dose-only effect, or another doubt; inactive = no such curve, though single readings can be large or run the other way. The list shows a part of the results.

Assay: Primary qHTS for Identification of Small Molecule Activators of Huntingtin-Antisense Promoter Activity; also: nearly all actives have a fitted effect of over 55% in size
Settings: HEK293 HTT-AS promoter firefly luciferase reporter, 24 h; series mostly up to 57.5 µM; activity change, positive = activation: at the top concentration
How it was run: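 Quantitative HTS used concentration series of up to 57.5 uM final on HEK293 luciferase reporter cells, 24 h at 37 degrees C. Readout was Dual-Glo firefly luminescence.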
For `COCCNC(=O)CSc1c2c(nc3cc(Cl)ccc13)CCCC2`, the “activity change, positive = activation” value was inactive: -21.3%.
In the case of `NCCCCCc1nnc(SCc2ccc(F)cc2)o1`, the “activity change, positive = activation” value is reported as inactive: -27.5%.
With `NCCNc1cccc2ccccc12` the “activity change, positive = activation” value was inactive: -15.7%.
For `COCCCNC(=O)c1ccc2nc(Cc3ccc(OC)cc3)oc2c1`, the “activity change, positive = activation” value was inactive: -3.47%.
For `CCOc1ccc(CNC(=O)C2CCN(S(=O)(=O)N3CCCCC3)CC2)cc1`, the “activity change, positive = activation” value was inactive: -20.4%.
For `COc1cccc(C(=O)Nc2cc(-c3cn4cccnc4n3)ccc2C)c1OC`, the “activity change, positive = activation” value was inactive: -5.26%.
For `CCOc1ccc(NC(=O)c2sc3nc4c(cc3c2N)CCCCCC4)cc1`, the “activity change, positive = activation” value was inactive: -29.4%.
In the case of `Cc1ccc(OCC(=O)Nc2ccccc2C(=O)OCc2cc(=O)n3nc(C4CC4)sc3n2)cc1`, the “activity change, positive = activation” value is reported as inactive: 11.3%.
In the case of `O=C(c1cccs1)N(Cc1cccnc1)c1nc2ccc(F)cc2s1`, the “activity change, positive = activation” value is reported as inactive: -18.9%.
In the case of `CC1CCN(C(=O)c2c(NC(=O)c3ccccc3F)sc3c2CCC(C(C)(C)C)C3)CC1` (stereo not drawn), the “activity change, positive = activation” value is reported as inactive: -5.1%.
For `Cc1nc2ccccn2c(=O)c1NC(=O)c1c(F)cccc1F`, the “activity change, positive = activation” value was inactive: -7.08%.
In the case of `CCOc1cc(C2C(C(=O)OC)=C(C)NC3=C2C(=O)c2ccccc23)c(Br)cc1OC` (stereo not drawn), the “activity change, positive = activation” value is reported as inactive: -33.5%.
For `Cc1cn2cc(C(=O)N(C)CCO)cc(N[C@@H]3CCOc4cccc(C)c43)c2n1`, the “activity change, positive = activation” value was inactive: -20.5%.
In the case of `CCOCCCNC(=O)Cn1nc(C)n2c(cc3cc(C)ccc32)c1=O`, the “activity change, positive = activation” value is reported as inactive: 19.6%.
In the case of `Cc1coc2c1C(=O)C(=O)c1c-2ccc2c1CCCC2(C)C`, the “activity change, positive = activation” value is reported as inactive: 5.09%.
For `CCCCN(CCCNC(=O)CN1N=C(c2ccccc2)CCC1=O)c1ccccc1`, the “activity change, positive = activation” value was inactive: -30.3%.
In the case of `O=C(COc1ccccc1Cl)Nc1nc2c(s1)CCCC2`, the “activity change, positive = activation” value is reported as inactive: 24.1%.
For `CCCCSc1nnc2n(-c3cccc(C)c3)c(=O)c3c4c(sc3n12)CCCC4`, the “activity change, positive = activation” value was inactive: 0%.
For `Clc1ccc(-c2csc(=Nc3ccccc3)n2Cc2ccc3c(c2)OCO3)cc1`, the “activity change, positive = activation” value was inactive: 9.26%.
In the case of `Cc1ccc2nc(COc3ccc(NC(=O)COc4ccccc4F)cc3)cc(=O)n2c1`, the “activity change, positive = activation” value is reported as inactive: 0.399%.
For `Cc1cccc(OCc2nc(C#N)c(NCc3ccccc3Cl)o2)c1`, the “activity change, positive = activation” value was inactive: 21.1%.
With `CCOC(=O)C1CCN(C(=O)CSc2n[nH]c(-c3ccccc3)n2)CC1` the “activity change, positive = activation” value was inactive: -5.16%.
For `COc1ccc(NC(=O)CSc2nc3ccccc3[nH]2)cc1`, the “activity change, positive = activation” value was inactive: 4.97%.
For `Cc1ccc(C)c(N2CCN(C(=O)Cn3c(=O)c4cccn4c4ccc(F)cc43)CC2)c1`, the “activity change, positive = activation” value was inactive: -2.25%.
In the case of `Cc1ccc(NC(=O)CSCn2nnc3c(=O)[nH]c(Cc4ccc(F)cc4)nc32)c(C)c1`, the “activity change, positive = activation” value is reported as inactive: -3.19%.
With `COc1cc2c(=O)c(C(=O)c3ccc(C)c(C)c3)cn(Cc3ccccc3)c2cc1OC` the “activity change, positive = activation” value was inactive: -15.2%.
With `COc1ccc(-c2cc3nc(C)c(CCC(=O)N4CCN(c5ccccc5)CC4)c(C)n3n2)c(OC)c1` the “activity change, positive = activation” value was inactive: -11.7%.
With `Cc1cc(C)c2nc(NC(=O)c3ccc(S(=O)(=O)N4CCCC4)cc3)sc2c1` the “activity change, positive = activation” value was inactive: -27.2%.
With `O=C(Oc1ccccc1)c1ccccc1O` the “activity change, positive = activation” value was inactive: -5.04%.
With `CCn1c(=O)c2cc(C(=O)Nc3cccc(C(F)(F)F)c3)sc2c2ccccc21` the “activity change, positive = activation” value was inactive: 2.73%.
For `COc1ccc(C(=O)Nc2ccc(-c3nc4ncccc4o3)cc2C)cc1Br`, the “activity change, positive = activation” value was inactive: -11.2%.
With `CCNC(=O)CCCN1C(=O)CCn2nc(-c3cccn3C)cc21` the “activity change, positive = activation” value was inactive: -7.23%.
In the case of `O=S(=O)(c1ccc(C2CCCCC2)cc1)N1CCN(c2cc(Cl)ccc2Cl)CC1`, the “activity change, positive = activation” value is reported as inactive: -7.03%.
In the case of `COc1ccc(-n2c(/C=C/c3cccc4ccccc34)nc3ccccc3c2=O)cc1OC`, the “activity change, positive = activation” value is reported as inactive: -15.9%.
With `CCC(Sc1nc2nccnc2c(=O)n1Cc1ccccc1Cl)C(=O)NC1CCCCC1` (stereo not drawn) the “activity change, positive = activation” value was inactive: -18%.
For `Cc1ccc2nc(NCc3ccccc3)c3nncn3c2c1`, the “activity change, positive = activation” value was inactive: -9.19%.
In the case of `CCn1cc(C(=O)NCCc2ccc(Cl)cc2)c(=O)c2cc(S(=O)(=O)N(C)C3CCCCC3)ccc21`, the “activity change, positive = activation” value is reported as inactive: -8.37%.
For `Fc1ccc(CNCCCSc2nnnn2-c2ccccc2)cc1`, the “activity change, positive = activation” value was inactive: -15.6%.
For `COc1ccc(NC(=O)CSCc2cc(=O)c3cc(C)ccc3[nH]2)cc1`, the “activity change, positive = activation” value was inactive: -16.9%.
With `COc1ccc(Cn2c(C(=O)O)c(CNCc3ccc(OC)cc3OC)c3ccc(C)cc32)cc1` the “activity change, positive = activation” value was inactive: -15.6%.
In the case of `COc1ccc(CCCc2nnc(SCC(=O)Nc3cc(F)ccc3C)o2)cc1`, the activity change, positive = activation is reported as inactive: 17.5% [at 11.5 µM, percent change from vehicle, -100% = no light].
With `CC(=O)OCC(=O)[C@@]1(O)[C@H](C)C[C@H]2[C@@H]3CCC4=CC(=O)C=C[C@]4(C)[C@@]3(F)[C@@H](O)C[C@@]21C` the “activity change, positive = activation” value was inactive: -6.78%.
With `COc1cccc2cc(-c3nc(C4CCC(C(=O)O)CC4)n4ncnc(N)c34)[nH]c12` (stereo not drawn) the “activity change, positive = activation” value was inactive: -23.2%.
With `COc1ncnc(NS(=O)(=O)c2ccc(N)cc2)c1OC` the activity change, positive = activation was “inactive”.
In the case of `CCOc1ccc(CNC(=O)c2ccc3c(Cl)c4c(nc3c2)CCCC4)cc1`, the “activity change, positive = activation” value is reported as inactive: -7.99%.
For `CN(C(=O)CSc1nc2ccc(NC(=O)c3cccc(F)c3)cc2s1)c1ccccc1`, the “activity change, positive = activation” value was inactive: -58.4%.
In the case of `CCOC(=O)c1c(NC(C)=O)c2c3c(sc2n1Cc1c(C)cc(C)cc1C)CCCC3`, the “activity change, positive = activation” value is reported as inactive: -20.4%.
For `CCOc1ccc(N(CC(=O)NCc2ccc(OC)cc2)S(=O)(=O)c2c(C)[nH]c(=O)[nH]c2=O)cc1`, the activity change, positive = activation was inactive: 8% [at 11.5 µM, percent change from vehicle, -100% = no light].
